The source of these data is publication PMC4336329 (PLoS ONE, 2015).

Hit rate of the full screen: of about 310,000 compounds, about 14,000 (4.5%) showed an effect of 50% or more. The effect is printed as a negative number. The list shows a part of the results.
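Further: peak tail current of the secondary pulse compared with the same well before compound.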

The target in the assay is human ether-à-go-go-related gene (hERG) potassium channel (human, UniProt Q12809). The experiment in a line: primary screen, population patch clamp on CHO cells stably expressing hERG.
Sequence of human ether-à-go-go-related gene (hERG) potassium channel (Q12809 whole entry, looked up): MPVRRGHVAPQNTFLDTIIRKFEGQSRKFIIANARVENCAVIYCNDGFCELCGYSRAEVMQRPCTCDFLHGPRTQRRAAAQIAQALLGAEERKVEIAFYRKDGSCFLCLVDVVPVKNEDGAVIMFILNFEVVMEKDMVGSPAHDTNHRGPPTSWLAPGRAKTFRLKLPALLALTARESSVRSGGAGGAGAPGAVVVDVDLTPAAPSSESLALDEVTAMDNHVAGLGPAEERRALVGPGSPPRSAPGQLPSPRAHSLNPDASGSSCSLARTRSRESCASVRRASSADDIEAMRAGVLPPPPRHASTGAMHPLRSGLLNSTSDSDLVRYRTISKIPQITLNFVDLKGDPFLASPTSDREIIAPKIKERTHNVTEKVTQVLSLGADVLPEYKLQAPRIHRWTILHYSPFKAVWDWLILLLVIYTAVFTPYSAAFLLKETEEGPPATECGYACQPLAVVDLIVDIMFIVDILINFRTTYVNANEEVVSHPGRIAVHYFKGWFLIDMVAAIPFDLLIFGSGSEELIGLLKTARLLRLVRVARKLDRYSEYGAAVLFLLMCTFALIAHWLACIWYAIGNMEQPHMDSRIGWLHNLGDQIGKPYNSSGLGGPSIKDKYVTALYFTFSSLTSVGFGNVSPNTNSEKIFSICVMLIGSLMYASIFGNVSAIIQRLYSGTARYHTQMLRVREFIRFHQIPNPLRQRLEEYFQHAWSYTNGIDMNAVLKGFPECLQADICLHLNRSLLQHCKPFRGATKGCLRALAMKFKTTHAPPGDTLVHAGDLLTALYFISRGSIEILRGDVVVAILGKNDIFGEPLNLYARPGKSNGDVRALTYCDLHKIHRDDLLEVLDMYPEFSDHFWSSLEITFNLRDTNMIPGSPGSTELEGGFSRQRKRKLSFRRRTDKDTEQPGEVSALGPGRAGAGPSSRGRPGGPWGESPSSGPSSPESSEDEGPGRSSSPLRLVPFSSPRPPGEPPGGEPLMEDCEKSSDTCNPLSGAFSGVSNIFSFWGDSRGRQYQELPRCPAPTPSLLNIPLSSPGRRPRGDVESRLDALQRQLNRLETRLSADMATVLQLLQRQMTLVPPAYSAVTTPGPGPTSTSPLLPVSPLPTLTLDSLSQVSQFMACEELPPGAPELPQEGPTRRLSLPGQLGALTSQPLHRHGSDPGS
As to `Cc1cccc(NC(=O)C2CCCN(c3ncnc4c3nc3n4CCCCC3)C2)n1` (stereo not shown), the “hERG current change (%, negative = inhibition) at 10uM” value is -54.2%.
The figure for `COCc1nc2ccccc2n1CCOc1ccccc1OC` is 0.661%.
The figure for `CCOC(=O)c1[nH]ncc1CN1CCN(Cc2ccccc2)C(CCO)C1` (stereo not shown) is 20.4%; for `CCNC(=S)NC(=NCc1cccnc1)Nc1nc(C)cc(C)n1` it is -1.31%.
The result for `NNC(=O)[C@H](Cc1ccccc1)NC(=O)Nc1ccc2c(c1)OCCO2` reads 11.4%; that for `CN(c1ccc2nc3ccccc3c(=O)n2n1)C1CCCCC1`, -16.7%.
For `COCCN(C(=O)COC(=O)c1cc(C)n(-c2ccccc2)c1C)c1c(N)n(Cc2ccccc2)c(=O)[nH]c1=O`, the “hERG current change (%, negative = inhibition) at 10uM” value is on record as -9.46%.
As for `COc1ccc(/C=C/C(=O)O)cc1S(=O)(=O)N1CCC(C)CC1`, the “hERG current change (%, negative = inhibition) at 10uM” value stood at 19.8%.
The figure for `Cc1ccc(NC(=O)CN2C(=O)NC3(CCCc4ccccc43)C2=O)cc1S(=O)(=O)N1CCOCC1` (stereo not shown) is 4.45%.
The result for `CC(C)CC(=O)NC(Nc1ccccc1F)C(Cl)(Cl)Cl` (stereo not shown) reads -18.4%; that for `Cc1nn(Cc2cccc(C(=O)O)c2)c(C)c1[N+](=O)[O-]`, 1.8%.
Turning to `Cc1cccc(C)c1-n1c(C)cc(/C=N/NC(=O)CSc2ncccn2)c1C`, the “hERG current change (%, negative = inhibition) at 10uM” value is -1.46%.
The figure for `COCC(=O)NC1CCCCCC1` is 14.9%.
Regarding `Cn1c(=O)c2c(ncn2CC(=O)OCC(=O)Nc2ccccc2Cl)n(C)c1=O`, the “hERG current change (%, negative = inhibition) at 10uM” value came to 4.46%.
In the case of `COc1cc2c(cc1OC)CN(C(=O)c1cc(=O)c3ccccc3o1)CC2`, the “hERG current change (%, negative = inhibition) at 10uM” value was -8.87%.
Regarding `Cc1nc2scc(-c3ccc(Cl)cc3)c2c(=O)n1N`, the “hERG current change (%, negative = inhibition) at 10uM” value is -14.2%.
Turning to `Cl.O=C(C1CCCO1)N1CCC(c2nc3ccccc3[nH]2)CC1` (stereo not shown), the “hERG current change (%, negative = inhibition) at 10uM” value is listed as 7.97%.
The figure for `Cc1c(CCOC(=O)CC23CC4CC(CC(C)(C4)C2)C3)sc[n+]1CC(=O)c1ccccc1.[Br-]` is -56.8%; for `Nc1ccc(S(=O)(=O)NCC(=O)OC2CCOC2=O)cc1[N+](=O)[O-]` (stereo not shown) it is 1.16%.
The figure for `CCN(CC(=O)NCc1ccc(Cl)cc1)C(=O)c1cccc(S(=O)(=O)Nc2ccc(OC)cc2)c1` is -0.458%; for `CN(C)S(=O)(=O)c1ccc(NC(=O)COC(=O)C2CC3CCCC(C2)C3=O)cc1` (stereo not shown) it is 6.03%; for `N#Cc1ccc(N2Cc3ccccc3C2=NC(=O)c2cccnc2Cl)cc1` it is -30.8%.
As to `CN(CC(=O)Nc1ccccc1Br)C(=O)CNC(=O)c1ccc2c(c1)OCO2`, the “hERG current change (%, negative = inhibition) at 10uM” value came out at 6.05%.
The figure for `Cc1cccc(N2CCN(C(=O)C3CCN(c4ncnc5c4nc4n5CCCCC4)CC3)CC2C)c1` (stereo not shown) is -40.9%; for `CC(C)C(C(=O)NCC1CCCO1)N(C(=O)CNS(=O)(=O)c1ccccc1)C1CCCCC1` (stereo not shown) it is 15.6%; for `CSCCOC(=O)C1=C(C)NC(=O)NC1c1ccc2c(c1)OCO2` (stereo not shown) it is 11.3%.
The figure for `CC(C)C12CN3CC(C(C)C)(CN(C1)C3c1ccco1)C2=O` (stereo not shown) is 8.35%; for `COc1ccc(CNS(=O)(=O)c2cccc(S(=O)(=O)N3CCOCC3)c2)cc1` it is -28.2%.
For `Cc1ccc(OCC(=O)NNC(=O)c2cccnc2)cc1`, the “hERG current change (%, negative = inhibition) at 10uM” value is recorded as 6.56%.
The figure for `Cn1cc(CNC(=O)c2cc(COc3ccc4c(c3)CCCC4)on2)cn1` is -18.5%; for `Cc1cc(C)c2c(CC(=O)Nc3ccc(Cl)cn3)coc2c1` it is -6.07%.
The figure for `CCOC(=O)Nc1ccc2c(c1)Nc1ccccc1S2` is 1.72%.
With `CSc1ccc(/C=C/C(=O)N2CCN(c3ccccn3)CC2)cc1`, the “hERG current change (%, negative = inhibition) at 10uM” value was -23.8%.
For the compound `CCOC(=O)c1c(NC(=O)C2CCN(S(=O)(=O)c3ccc(Cl)cc3)CC2)sc2c1CCCC2`, the “hERG current change (%, negative = inhibition) at 10uM” value was 1.63%.
The result for `O=C(CCC(=O)Nc1ccc(F)cc1)N/N=C/c1ccc(O)cc1O` reads 3.23%; that for `O=C(O)CCCC(=O)N1CCC(C(O)(c2ccccc2)c2ccccc2)CC1`, 15.5%.
The result for `Cc1cc(C)n(CCC(=O)Nc2cccc(F)c2)n1` reads 5.83%; that for `N#Cc1ccc(CSc2nnc(-c3cnccn3)o2)cc1`, -20.4%; that for `COc1ccc(C2C(C#N)=C(N)Oc3n[nH]c(C)c32)cc1Cn1nnc2ccccc21` (stereo not shown), -8.03%.
Regarding `COc1ccc(-c2nc(CN3CCC(C(=O)NC4CC4)CC3)c(C)o2)cc1OC`, the “hERG current change (%, negative = inhibition) at 10uM” value is listed as -12.8%.
`COc1ccc(NC(=S)N/N=C/c2cccn2Cc2ccc(F)cc2Cl)cc1`: the “hERG current change (%, negative = inhibition) at 10uM” value turned out to be 19.6%.
The result for `CCC1CCCCN1Cc1nc2c(c(=O)n(C)c(=O)n2C)n1CCC(C)C` (stereo not shown) reads -33.4%.
In the case of `Cc1ccc(NC(=O)CSc2nc(=O)cc(N)n2CCc2ccccc2)cc1`, the “hERG current change (%, negative = inhibition) at 10uM” value is recorded as -36.4%.
On to `COc1ccc([N+](=O)[O-])cc1NC(=O)CSCc1ccccc1C`, for which the “hERG current change (%, negative = inhibition) at 10uM” value is on record as -7.85%.
The result for `C=Cn1c(P(=S)(N2CCOCC2)N2CCOCC2)cc2c1CCCC2` reads -5.05%; that for `O=C(Nc1ccc(N2CCN(C(=O)c3cccs3)CC2)cc1)c1cccnc1Cl`, -23.3%; that for `CC(NC(=O)COc1ccccc1Cl)c1ccccc1` (stereo not shown), 7.82%.
Turning to `COc1ccc2c(/C=N/Nc3ccc(C(=O)O)cc3)c[nH]c2c1`, the “hERG current change (%, negative = inhibition) at 10uM” value is given as 3.54%.
The figure for `COC(=O)CC1C(=O)NCCN1C(=O)c1ccc2oc(C(C)C)nc2c1` (stereo not shown) is 19.7%; for `Cc1cccc(NC(=O)c2oc(=O)c3ccccc3c2-c2ccccc2)c1C` it is -11.4%; for `O=C(CSc1nnc(CNC(=O)c2ccccc2)o1)NCc1ccco1` it is -0.224%.
The result for `Cc1nc(-c2ccccc2)[nH]c(=O)c1Oc1ccc(Cl)cc1Cl` reads 2.13%.
In the case of `Cc1ccc(S(=O)(=O)Nc2ccc(O)c3ncccc23)cc1.Cl`, the “hERG current change (%, negative = inhibition) at 10uM” value is on record as -12.8%.
The figure for `S=C(NCCc1ccccc1)NCCN1CCOCC1` is 5.86%; for `CC(NCCCOc1cccc2ccccc12)c1ccccc1.O=C(O)C(=O)O` (stereo not shown) it is 0.734%.
